This is an account of results in PMC4336329 (PLoS ONE, 2015).

Structures are written as SMILES. Out of some 310,000 compounds screened, about 2,200 (0.71%) showed an effect of 50% or more. Effects have a minus sign here. The list shows a part of the results.

For this assay, the target named is human ether-à-go-go-related gene (hERG) potassium channel (human, UniProt Q12809). The assay is described as follows: primary screen, population patch clamp on CHO cells stably expressing hERG.
Chain of human ether-à-go-go-related gene (hERG) potassium channel (Q12809 whole entry, looked up): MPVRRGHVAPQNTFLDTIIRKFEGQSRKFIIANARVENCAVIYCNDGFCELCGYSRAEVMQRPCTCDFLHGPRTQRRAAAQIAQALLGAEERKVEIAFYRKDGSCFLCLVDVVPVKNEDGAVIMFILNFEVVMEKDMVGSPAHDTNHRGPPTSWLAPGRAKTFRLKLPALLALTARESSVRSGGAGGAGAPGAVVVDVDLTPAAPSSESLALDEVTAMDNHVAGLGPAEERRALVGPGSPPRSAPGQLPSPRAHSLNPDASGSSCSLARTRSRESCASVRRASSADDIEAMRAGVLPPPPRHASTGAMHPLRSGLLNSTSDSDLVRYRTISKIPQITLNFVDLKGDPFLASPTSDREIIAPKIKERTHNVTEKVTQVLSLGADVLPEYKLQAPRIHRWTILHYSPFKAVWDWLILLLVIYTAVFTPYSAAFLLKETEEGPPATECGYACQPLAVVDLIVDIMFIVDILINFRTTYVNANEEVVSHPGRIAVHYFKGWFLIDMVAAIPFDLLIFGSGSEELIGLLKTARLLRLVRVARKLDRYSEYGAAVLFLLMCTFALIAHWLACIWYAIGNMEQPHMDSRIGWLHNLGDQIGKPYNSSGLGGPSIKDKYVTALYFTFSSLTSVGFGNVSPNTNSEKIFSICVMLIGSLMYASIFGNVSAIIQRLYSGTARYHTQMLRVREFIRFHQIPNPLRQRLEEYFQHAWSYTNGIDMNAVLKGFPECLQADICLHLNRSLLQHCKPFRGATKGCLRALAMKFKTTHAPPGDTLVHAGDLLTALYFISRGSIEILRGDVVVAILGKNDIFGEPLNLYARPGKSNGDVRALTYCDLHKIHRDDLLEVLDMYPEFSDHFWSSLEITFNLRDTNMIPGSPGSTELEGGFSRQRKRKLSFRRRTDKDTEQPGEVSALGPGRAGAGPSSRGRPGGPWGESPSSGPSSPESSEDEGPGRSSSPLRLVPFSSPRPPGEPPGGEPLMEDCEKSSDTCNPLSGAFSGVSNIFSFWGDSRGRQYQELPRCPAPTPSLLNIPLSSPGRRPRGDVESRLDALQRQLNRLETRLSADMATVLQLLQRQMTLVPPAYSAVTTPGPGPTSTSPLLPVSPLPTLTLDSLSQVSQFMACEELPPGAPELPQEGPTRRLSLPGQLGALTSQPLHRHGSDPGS
`OC(c1cc(-c2ccc(C(F)(F)F)cc2)nc(C(F)(F)F)c1)C1CCCCN1` (stereo not drawn): the “hERG current change (%, negative = inhibition) at 1uM” value was determined as 11.4%.

Regarding `C=CCn1c(SCC(=O)Nc2nc(C)cs2)nnc1C(NC(=O)c1ccccc1)C(C)C` (stereo not drawn), the “hERG current change (%, negative = inhibition) at 1uM” value worked out at 9.32%.

For `Cc1ccc(NC(=O)Nc2ccc3c(c2)OCO3)c(OC(F)F)c1`, the “hERG current change (%, negative = inhibition) at 1uM” value is -0.268%.

Regarding `COc1cccc(CNC(=O)CCC2CCCN(Cc3ccc4c(c3)CCO4)C2)c1` (stereo not drawn), the “hERG current change (%, negative = inhibition) at 1uM” value is -16.4%.

Consider `CCOc1ccccc1NC(=O)Cc1cccs1`, for which the “hERG current change (%, negative = inhibition) at 1uM” value is 11.3%.

As to `c1ccc(C[C@H]2CNCCN2CC2(c3ccccc3)CC2)cc1`, the “hERG current change (%, negative = inhibition) at 1uM” value is 3%.

With `CC1CCN(C(=O)C2CCN(S(=O)(=O)c3cc(Cl)ccc3Cl)CC2)CC1`, the “hERG current change (%, negative = inhibition) at 1uM” value turned out to be 7.12%.

Regarding `O=C(Nc1ccc(F)cc1)c1cc(S(=O)(=O)N2CCCCC2)ccc1F`, the “hERG current change (%, negative = inhibition) at 1uM” value is listed as -1.38%.

For `COc1ccc(C(=O)Nc2ccc(C(=O)OCC(=O)c3ccccc3)cc2)cc1`, the “hERG current change (%, negative = inhibition) at 1uM” value amounted to 0.867%.

With `Cc1ccc(Sc2ncccc2C(=O)NCc2cc([N+](=O)[O-])ccc2O)cc1C`, the “hERG current change (%, negative = inhibition) at 1uM” value is recorded as 9.24%.

As to `CCC(CC)c1nnc(NC(=O)c2cccc(S(=O)(=O)N3CCc4ccccc43)c2)s1`, the “hERG current change (%, negative = inhibition) at 1uM” value came out at 13.3%.

`Cc1ccccc1OCCOCCN1CCCCCC1.O=C(O)C(=O)O`: the “hERG current change (%, negative = inhibition) at 1uM” value is -10.8%.

On to `Cc1c(C(=O)N2CCCCC2)c(S(=O)(=O)NCCc2ccccc2)c(C)n1C`, for which the “hERG current change (%, negative = inhibition) at 1uM” value turned out to be 11.5%.

Turning to `COC(=O)c1nnn(Cc2ccccc2)c1N`, the “hERG current change (%, negative = inhibition) at 1uM” value amounted to 13.7%.

Consider `Nc1cc(=O)[nH]c(SCc2nnnn2-c2ccc(Cl)cc2)n1`, for which the “hERG current change (%, negative = inhibition) at 1uM” value worked out at 4.85%.

For the molecule `CC(=O)c1cccc(NC(=O)COC(=O)c2ccc3c(c2)OCCO3)c1`, the “hERG current change (%, negative = inhibition) at 1uM” value came to 5.83%.

For `COc1ccccc1CNC(=O)c1csc2c1CCCC2`, the “hERG current change (%, negative = inhibition) at 1uM” value came out at 15%.

With `COc1ccc(-n2c(C)cc(C(=O)COC(=O)c3cc(OC)c(OC)cc3NC(=O)c3cccs3)c2C)cc1`, the “hERG current change (%, negative = inhibition) at 1uM” value was 6.49%.

With `COc1ccccc1NC(=O)Nc1nnc(CC(=O)Nc2ccccc2)s1`, the “hERG current change (%, negative = inhibition) at 1uM” value is recorded as -3.09%.

Consider `O/N=C/c1c[nH]c2ccccc12`, for which the “hERG current change (%, negative = inhibition) at 1uM” value is recorded as 10%.

As to `CC(=O)Nc1ccc2c(c1)nc(CCN1CCN(c3ccccn3)CC1)n2C`, the “hERG current change (%, negative = inhibition) at 1uM” value was 12%.

For `COc1cccc(C(=O)N2CCN(c3ccccn3)CC2)c1`, the “hERG current change (%, negative = inhibition) at 1uM” value stood at 14.1%.

Turning to `Cc1cc(C)cc(-n2ncc3c2CCCC3NC(=O)c2csnn2)c1` (stereo not drawn), the “hERG current change (%, negative = inhibition) at 1uM” value is given as -84%.

Turning to `C=CCOc1ccc2ccccc2c1CNn1cn[nH]c1=S`, the “hERG current change (%, negative = inhibition) at 1uM” value amounted to 11.8%.

As to `COc1ccc(-n2c(COc3ccccc3)n[nH]c2=S)cc1`, the “hERG current change (%, negative = inhibition) at 1uM” value was found to be 11.7%.

`Cc1cccc(-c2noc(CN(C(=O)c3ccc4c(c3)OCO4)C(C)C)n2)c1`: the “hERG current change (%, negative = inhibition) at 1uM” value came to 0.803%.

Take `Cc1cccc(C(=O)NC(=S)NNC(=O)c2ccccc2Cl)c1`: the “hERG current change (%, negative = inhibition) at 1uM” value is 11.5%.

Regarding `O=C(COC(=O)Cc1ccccc1[N+](=O)[O-])NCc1ccccc1Cl`, the “hERG current change (%, negative = inhibition) at 1uM” value is reported as 9.66%.

`O=C1N=c2ccccc2=C1c1sc(=S)n(Cc2ccccc2Cl)c1O`: the “hERG current change (%, negative = inhibition) at 1uM” value was determined as 4.3%.

With `Cn1c(=O)n(C)c2cc(NC(=O)CSc3nc4ccccc4c(=O)[nH]3)ccc21`, the “hERG current change (%, negative = inhibition) at 1uM” value turned out to be 17.6%.

As to `O=C(Nc1cccc(F)c1)C1CCN(C(=O)Cc2ccccc2)CC1`, the “hERG current change (%, negative = inhibition) at 1uM” value is 5.14%.

`CCCCN1CC[C@H]2C=CC[C@@H](C(=O)Nc3ccccc3)[C@H]2C1=O`: the “hERG current change (%, negative = inhibition) at 1uM” value amounted to 3.83%.

With `CN(C)CCCN=Cc1c(O)n(Cc2ccccc2)c(=O)c2ccccc12`, the “hERG current change (%, negative = inhibition) at 1uM” value is listed as -25.5%.

For the molecule `COc1cc2ncnc(NCc3ccc(F)cc3)c2cc1OC`, the “hERG current change (%, negative = inhibition) at 1uM” value was -11.8%.

In the case of `CC(=O)Nc1ccc(NC(=O)c2cc(-c3ccc(C)cc3O)n[nH]2)cc1`, the “hERG current change (%, negative = inhibition) at 1uM” value turned out to be 13.8%.

Turning to `O=C(CCN1C(=O)C2C3C=CC(C3)C2C1=O)N1CCN(c2ccccc2F)CC1` (stereo not drawn), the “hERG current change (%, negative = inhibition) at 1uM” value is given as 6.95%.

Consider `CCCNS(=O)(=O)c1ccc(N2CCCC2=O)c([N+](=O)[O-])c1`, for which the “hERG current change (%, negative = inhibition) at 1uM” value came out at 7.62%.

Take `COc1cccc2cc(C(=O)NCCN3CCOCC3)oc12`: the “hERG current change (%, negative = inhibition) at 1uM” value was determined as 11.1%.

`Cc1ccc(Cl)cc1-n1ncc2c(NNC(=O)c3ccco3)ncnc21`: the “hERG current change (%, negative = inhibition) at 1uM” value is on record as 4.23%.

As for `Cc1nonc1OC(C)CNc1ccc([N+](=O)[O-])cc1` (stereo not drawn), the “hERG current change (%, negative = inhibition) at 1uM” value is -20.5%.

Consider `CCSc1nnc(NC(=O)C(C(F)(F)F)C(F)(F)F)s1`, for which the “hERG current change (%, negative = inhibition) at 1uM” value came out at 7.55%.

As to `COc1c(F)c(F)c(C(=O)O)c(Nc2ccccc2)c1F`, the “hERG current change (%, negative = inhibition) at 1uM” value was -5.65%.

For the molecule `O=C(/C=C/c1ccccc1[N+](=O)[O-])NCc1ccc(Cl)cc1`, the “hERG current change (%, negative = inhibition) at 1uM” value came to 4.33%.

`CCC1CCCCN1CCCNC(=O)c1ccc(N2CCOCC2)c(NS(=O)(=O)c2ccc(OC)cc2)c1` (stereo not drawn): the “hERG current change (%, negative = inhibition) at 1uM” value was -18.5%.

On to `O=C(NCCc1ccccc1Cl)C1CC(=O)N(C2CCCCC2)C1` (stereo not drawn), for which the “hERG current change (%, negative = inhibition) at 1uM” value is recorded as 14.6%.

On to `COC(=O)c1ccc(CNC(=O)COC(=O)Cc2ccsc2)cc1`, for which the “hERG current change (%, negative = inhibition) at 1uM” value was 6.06%.

As for `CCOc1ccc(Nc2cc(C)nc(N3CCOCC3)n2)cc1`, the “hERG current change (%, negative = inhibition) at 1uM” value was found to be 7.56%.

As to `Cc1cc(O)ccc1NS(=O)(=O)c1ccc2c3c(cccc13)C(=O)N2`, the “hERG current change (%, negative = inhibition) at 1uM” value is given as 1.43%.

Regarding `Cc1cccn2c(=O)nc(SCC(=O)NCc3ccc(F)cc3)nc12`, the “hERG current change (%, negative = inhibition) at 1uM” value was 4.86%.

Regarding `CCC(=O)N(Cc1cc2cc(OC)ccc2[nH]c1=O)c1ccccc1C`, the “hERG current change (%, negative = inhibition) at 1uM” value was 16%.

As for `CCOC(=O)/C=C/c1ccc2c(c1)S(=O)(=O)N(Cc1ccc(OC)cc1)[C@H]2CC(=O)OCC`, the “hERG current change (%, negative = inhibition) at 1uM” value is 1.36%.

As for `CC1=CC(C)C(C[N+]2(C)CCCCC2)C(C)C1.[I-]` (stereo not drawn), the “hERG current change (%, negative = inhibition) at 1uM” value turned out to be 12.7%.

For `Cn1c(SCc2c(F)cccc2Cl)nnc1-c1cccs1`, the “hERG current change (%, negative = inhibition) at 1uM” value is listed as -16.3%.

Take `CCOC(=O)C1(CCc2ccccc2)CCN(Cc2c(O)cccc2OC)CC1`: the “hERG current change (%, negative = inhibition) at 1uM” value is -28.7%.

With `COCCn1c(Cc2ccccc2)nnc1SCC(=O)Nc1ccccc1`, the “hERG current change (%, negative = inhibition) at 1uM” value stood at 9.06%.

`Cc1ccc(N2CC(C(=O)NCCN3CCOCC3)CC2=O)cc1` (stereo not drawn): the “hERG current change (%, negative = inhibition) at 1uM” value is listed as 14.6%.

Regarding `CCN1CCN(CCCN(Cc2ccco2)C(=S)Nc2ccc(C)c(Cl)c2)CC1`, the “hERG current change (%, negative = inhibition) at 1uM” value was -19.1%.
